Results from PubChem BioAssay AID504832 (National Center for Advancing Translational Sciences (NCATS), 2011).
The campaign covered roughly 310,000 compounds. About 18,000 (5.8%) were called active. The inconclusive results got no clear call from the source; some entries with a clear call stand among them for comparison. Calls follow the shape of the dose curve; as a rule, active = well fitted inhibition curve with a large enough effect; inconclusive = small, poorly fitted or top-dose-only effect, or another doubt; inactive = no such curve, though single readings can be large or run the other way. Potencies of inconclusive entries are left out as doubtful fits.

Assay: Primary qHTS for delayed death inhibitors of the malarial parasite plastid, 48 hour incubation
Conditions: P. falciparum luciferase growth in erythrocytes; series mostly up to 28.7 µM
Summary of the method: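 In quantitative HTS format, infected erythrocytes bearing luciferase-reporter parasites were treated for a single generation at 37 C. Luminescence after adding detection reagent served as the growth measure.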
Potency is read from the fitted curve at half-maximal effect; tags tell the direction and shape of the fitted curve.

SMILES	Potency
COc1cc(CC(=O)O)ccc1OCc1ccccc1	inactive
CC(C)Oc1ccc(CCNC(=O)CC2C(=O)NCCN2C)cc1 (configuration not stated)	inactive
COc1ccc(-c2csc3nc(-c4ccccc4)oc(=O)c23)cc1OC	inactive
COC(=O)CCN(C1CCCCC1)S(=O)(=O)c1ccc(S(=O)(=O)NC2CCCCC2)cc1	inconclusive [inhibitor, single point]
CC1C(=O)N2CCCc3cc(NS(=O)(=O)c4ccccc4)cc1c32 (configuration not stated)	inconclusive [inhibitor, partial curve, poor fit]
Cc1c(C(=O)N2CCCCCC2)c(S(=O)(=O)Nc2cccc(F)c2)c(C)n1C	inactive
Cc1cc(C(=O)OC(C)C(=O)NC2CCCCC2C)c(C)o1 (configuration not stated)	inconclusive [inhibitor, single point]
CCCCOc1ccc(Cc2c(Cl)nc(SC)nc2N2CCOCC2)cc1	active: 13.1 µM
Oc1ccc(NCc2cccs2)cc1	inconclusive [inhibitor, single point]
COc1cccc(C(=O)NCCS(=O)(=O)N2CCN(C(=O)c3ccco3)CC2)c1	inconclusive [inhibitor, single point]
CCCCc1ccc(NC(=O)CSc2nc(=O)n(CCN(C)C)c3c2CCC3)cc1	active: 11.7 µM
COc1ccc(CNCCC(c2ccc(F)cc2)c2ccc(OC)cc2)cc1 (configuration not stated)	inconclusive [inhibitor, single point]
O=C1CC2(CCN(C(=O)C3CC(=O)N(c4ccccc4)C3)CC2)Oc2ccccc21 (configuration not stated)	inconclusive [inhibitor, partial curve]
Cc1ccc(S(=O)(=O)N(C)C)cc1NC(=O)COC(=O)Cc1cccs1	inconclusive [inhibitor, single point]
Cc1cccc(NC(=O)c2cccc(N3C(=O)CCC3=O)c2)c1	inactive
Fc1cc2ncn(Cc3ccccc3)c2cc1F	inactive
CCCC(C(=O)Nc1ccc(C)c(S(=O)(=O)N2CCOCC2)c1)c1ccccc1 (configuration not stated)	active: 10.4 µM
O=C(NCc1n[nH]c(=S)n1-c1ccc(Br)cc1)c1ccc(S(=O)(=O)N2CCCC2)cc1	inactive
Cc1ccc(C)c(COC(=O)c2cc(S(=O)(=O)N3CCCCC3)ccc2N2CCOCC2)c1	active: 14.7 µM
CCN1CC=C2C(C1)C(c1ccc(Cl)s1)C(C#N)=C(N)C2(C#N)C#N (configuration not stated)	inconclusive [inhibitor, partial curve]
CC(=O)N1N=C(c2ccccc2)CC1c1cn(Cc2ccccc2)c2ccccc12 (configuration not stated)	inconclusive [inhibitor, single point]
COc1ccccc1CNC(=O)CCNC(=O)C1CCN(S(=O)(=O)c2ccccc2)CC1	inconclusive [inhibitor, full curve, poor fit]
O=C(c1cccnc1)N1CCN(c2c(Cl)cccc2[N+](=O)[O-])CC1	inactive
CCOC(=O)c1sc(NC(=O)CSc2nnc(-c3ccc(OC)cc3)n2CCOC)nc1C	inconclusive [inhibitor, single point]

SMILES	Potency
Cc1cccn2c(=O)c3c(nc12)N1CCCCC1C1(C3)C(=O)N(C)C(=O)N(C)C1=O (configuration not stated)	inconclusive [inhibitor, full curve]
C[C@H](NC(=O)c1nc[nH]c1C(=O)N[C@@H](Cc1ccccc1)C(=O)OC(C)(C)C)C(=O)OC(C)(C)C	active: 7.38 µM
Cc1ccc2nc(NC3=NCN(Cc4ccccc4)CN3)nc(C)c2c1	inconclusive [inhibitor, partial curve, poor fit]
O=C(c1ccncc1)N1N=C(c2ccc(Br)cc2)CC1c1ccccc1O (configuration not stated)	inconclusive [inhibitor, partial curve]
CCSc1ncccc1-c1nc2ccccc2[nH]1	inconclusive [inhibitor, partial curve, poor fit]
CC(=O)c1ccc(NC(=O)CN2C(=O)NC(C)(c3ccc4c(c3)OCCO4)C2=O)cc1 (configuration not stated)	inactive
CCOC(=O)c1ccc(NC(=S)NCCc2ccc(OC)c(OC)c2)cc1	inconclusive [inhibitor, partial curve]
O=C(NCCCN1CCOCC1)C1CCN(S(=O)(=O)c2ccccc2)CC1	inactive
COc1cc2c(cc1OC)C1O[C@](CCCCN3C(=O)c4ccccc4C3=O)(C2)OC2=C1C(=O)c1ccccc1C2=O	inconclusive [inhibitor, partial curve]
CCCN(C(=O)CSc1ncnc2sccc12)c1c(N)n(Cc2ccccc2)c(=O)[nH]c1=O	inconclusive [inhibitor, single point]
C=CCOc1c(Br)cc(C2C3=C(CCCC3=O)N(C)C3=C2C(=O)CCC3)cc1OCC	inconclusive [inhibitor, single point]
O=C(CCCCn1c(=O)c2ccccc2n(Cc2ccccc2)c1=O)NC1CCN(Cc2ccccc2)CC1	active: 5.86 µM
Cc1cc(C)n(CC(=O)N/N=C/c2cc([N+](=O)[O-])ccc2O)n1	inconclusive [inhibitor, single point]
Cc1ccccc1Cc1c(C)nc2ncnn2c1C	inconclusive [inhibitor, full curve, poor fit]
FC(F)(F)c1cc(-c2ccco2)nc(N2CCN(Cc3ccccc3)CC2)n1	inconclusive [inhibitor, single point]
COc1cc(C(C(=O)NC2CCCCC2)N(C(=O)Cc2c[nH]c3ccccc23)c2ccc(C)cc2)cc(OC)c1OC (configuration not stated)	inactive
O=C(NC(Cc1ccccc1)C(=O)N1CCN(S(=O)(=O)c2ccccc2F)CC1)c1ccccc1 (configuration not stated)	inconclusive [inhibitor, single point]
CCC(NC(=O)c1ccccc1NC(=O)c1ccco1)C(=O)O (configuration not stated)	inactive
CCCCN(C(=O)c1ccc(S(=O)(=O)N2CCCC2)cc1)C1CCS(=O)(=O)C1 (configuration not stated)	inactive
Cc1ccc(O)c(C(=O)c2cnc3c(c2)CN(C)C(=O)N3)c1	inconclusive [inhibitor, single point]
O=C(CSc1nnc(CNc2ccc(Cl)cc2)n1Cc1ccccc1)NCc1ccco1	inactive
CC(OC(=O)CN1C(=O)NC2(CCCC2)C1=O)C(=O)Nc1cccc(Cl)c1Cl (configuration not stated)	inactive
COCCCNCCCCOc1ccc(OCc2ccccc2)cc1	inconclusive [inhibitor, single point]
CCOc1ccc(NC(=O)c2cccnc2C(=O)O)cc1	inactive

SMILES	Potency
COCCn1c(=NC(=O)CSCC(=O)NC2CCCCC2)sc2cc(OC)ccc21	inconclusive [inhibitor, single point]
Cc1ccc(Cn2cnc3sc4c(c3c2=O)CCC4)c(C)c1	inconclusive [inhibitor, single point]
COC(=O)N1C(=O)[C@](c2ccc(Cl)cc2)(C(C)C)N1C(=O)OC	inactive
Cc1ccc(-n2c(SCC(=O)Nc3cc(S(=O)(=O)N4CCOCC4)ccc3Cl)nc3ccccc3c2=O)cc1	active: 10.4 µM
CCc1cc(C(=O)c2ccc(C)cc2)c(NC(=O)CCl)s1	inconclusive [inhibitor, single point]
CCOC(=O)c1c(C)[nH]c(C)c1S(=O)(=O)N(C)CC(=O)NCc1cccc(Br)c1	inconclusive [inhibitor, partial curve, poor fit]
CC(=NCc1cccc(Cl)c1)c1nc(-c2ccco2)oc1O	inconclusive [inhibitor, partial curve]
O=C(CCc1c[nH]c2ccccc12)N1CCN(S(=O)(=O)c2ccccc2)CC1	inconclusive [inhibitor, single point]
OCC[C@@H]1C[C@@H](O)[C@H](O)[C@]2(OCc3ccccc32)O1	inactive
O/N=C/c1ccc(-c2cc(Cl)ccc2Cl)o1	inactive
O=C(Nc1ccc2c(c1)OCO2)c1ccc(NC2CC2)c([N+](=O)[O-])c1	inactive
Cc1cccc(/C=N/n2c(C)cc(C)c(C#N)c2=O)c1	active: 5.22 µM
O=C(CCl)Nc1c2c(nn1-c1ccccc1)CSC2	active: 4.15 µM
COc1ccc(S(=O)(=O)N2CCCC2)cc1C(=O)O	inconclusive [inhibitor, full curve, poor fit]
CCOc1ccc(C2OC(=O)Cc3cc(OC)c(OC)cc32)cc1 (configuration not stated)	inconclusive [inhibitor, full curve, poor fit]
CN(C)S(=O)(=O)c1ccc(C(=O)NCc2ccc3[nH]c4c(c3c2)CCCC4)cc1	inactive
COc1ccc(S(=O)(=O)N2CCOC2CNC(=O)C(=O)NCc2ccccc2OC)cc1 (configuration not stated)	inactive
CCCCc1c(C)nc2ccccc2c1SCCC(=O)O	inconclusive [inhibitor, partial curve]
CCN(CC)CCNC(=O)c1ccc(NC(=O)c2ccc(C(=O)c3ccccc3)cc2)cc1	active: 5.86 µM
CCCOc1ccccc1/C=N/Nc1ccnc(=O)[nH]1	inconclusive [inhibitor, partial curve]
OC1(c2cccs2)CN(c2ccc(Cl)cc2)C2=[N+]1CCCS2 (configuration not stated)	inactive
CCOC(=O)c1c(C)[nH]c(C)c1C(=O)CN1C(=O)NC(CC(C)C)C1=O (configuration not stated)	active: 9.28 µM
Cc1nc(N2CCOCC2)[nH]c(=O)c1C(O)C(Cl)(Cl)Cl (configuration not stated)	inactive
COC(=O)c1ccccc1NC(=O)CN1CCN(C23CC4CC(CC(C4)C2)C3)CC1	inconclusive [inhibitor, single point]
